# Measured values published in PubChem BioAssay AID588342 (National Center for Advancing Translational Sciences (NCATS), 2011).
# Screen size: about 360,000 compounds; about 25,000 (6.9%) were called active. The inconclusive results got no clear call from the source; some entries with a clear call stand among them for comparison. Calls follow the shape of the dose curve; as a rule, active = well fitted inhibition curve with a large enough effect; inconclusive = small, poorly fitted or top-dose-only effect; inactive = flat fitted curve, though single readings scatter. Potencies of inconclusive entries are doubtful fits and often do not repeat.
# Target: Luciferin 4-monooxygenase (Photinus pyralis) (UniProt P08659)
# Experiment: qHTS profiling assay for firefly luciferase inhibitor/activator using purifed enzyme and Km concentrations of substrates (counterscreen for miR-21 project); also: nearly all actives have a fitted effect of over 55% in size;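 as to activity change, negative = inhibition: plate controls were vehicle for no effect and reference inhibitor for full effect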
# Conditions: purified FLuc, luminescence inhibition; activity change, negative = inhibition: at 57.5 µM (top of the series)
# Outline: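 Purified P. pyralis luciferase, 10 nM final, with Km-level 10 uM D-luciferin and 10 uM ATP in 50 mM Tris acetate pH 7.5, 10 mM Mg acetate, 0.01% Tween-20, 0.05% BSA; 6-point qHTS titration about 60 µM downward; luminescence read.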
# Potency is read from the fitted curve at half-maximal effect; tags tell the direction and shape of the fitted curve.
# Sequence of UniProt P08659 (P08659 whole entry, looked up): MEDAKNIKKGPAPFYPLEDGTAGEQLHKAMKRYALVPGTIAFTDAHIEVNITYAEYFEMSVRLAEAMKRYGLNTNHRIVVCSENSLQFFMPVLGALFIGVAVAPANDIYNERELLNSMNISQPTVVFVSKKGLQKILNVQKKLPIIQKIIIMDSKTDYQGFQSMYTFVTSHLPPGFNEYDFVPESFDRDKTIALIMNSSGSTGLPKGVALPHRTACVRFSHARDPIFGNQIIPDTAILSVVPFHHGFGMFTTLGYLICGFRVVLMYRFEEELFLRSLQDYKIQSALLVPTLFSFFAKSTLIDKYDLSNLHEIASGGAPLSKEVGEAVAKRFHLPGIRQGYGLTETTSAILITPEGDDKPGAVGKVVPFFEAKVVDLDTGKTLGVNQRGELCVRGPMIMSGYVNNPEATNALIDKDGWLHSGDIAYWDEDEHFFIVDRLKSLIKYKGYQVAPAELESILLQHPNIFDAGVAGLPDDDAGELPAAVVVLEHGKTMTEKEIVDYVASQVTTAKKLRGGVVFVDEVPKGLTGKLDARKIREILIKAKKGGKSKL
Structure (SMILES),Potency,"activity change, negative = inhibition"
O=C(Nc1ccc([N+](=O)[O-])cc1)C1CC12CCC2 (stereo not drawn),"inconclusive: 19 µM [inhibitor, partial curve, poor fit]",–
COC(=O)c1sccc1NC(=O)Nc1ccc(C)c(C)c1,active: 0.478 µM,–
Cc1ccc(C)c(CSc2ncccc2C(=O)O)c1,"inconclusive: 26.9 µM [inhibitor, partial curve, poor fit]",–
CC(=O)c1c(C)[nH]c(C(=O)Nc2cccnc2)c1C,inactive,–
CCCCC(=O)Nc1cc(Cl)ccc1C(=O)O,"inconclusive: 37.9 µM [inhibitor, partial curve, poor fit]",–
O=C(CSc1ncn[nH]1)Nc1ccc2c(c1)CCC2,"inconclusive: 33.8 µM [inhibitor, single point]",–
CCN(C(=O)Cn1c(SCc2ccccc2F)nc2cccnc21)c1ccccc1,"inconclusive: 26.9 µM [inhibitor, partial curve, poor fit]",–
CCCCN1C(=O)/C(=C/C=C2\Oc3ccccc3N2CC)SC1=S,inactive,–
O=C(CN1C(=O)c2ccccc2S1(=O)=O)c1ccccc1Cl,active: 3.01 µM,–
COc1ccc(-c2cc(-c3nnc(COC(=O)CC4CC5CCC4C5)o3)c3ccccc3n2)cc1OC (stereo not drawn),"inconclusive: 21.3 µM [inhibitor, partial curve, poor fit]",–
O=C(CN1C(=O)/C(=C/c2ccco2)SC1=S)NC1CCS(=O)(=O)C1 (stereo not drawn),"inconclusive: 23.9 µM [inhibitor, partial curve, poor fit]",–
Cc1ccc(C(=O)O/N=C2\CC3CCC2(C)C3(C)C)cc1 (stereo not drawn),"inconclusive: 30.1 µM [inhibitor, partial curve, poor fit]",–
COc1ccc2nc(Nc3nc(C)c(C(C)=O)s3)sc2c1,active: 4.78 µM,–
COC(=O)C1CN(C(=O)COc2ccc(Cl)cc2C)c2ccccc2O1 (stereo not drawn),"inconclusive: 23.9 µM [inhibitor, partial curve]",–
CO/N=C/CC(=O)c1ccc(OC)cc1,inactive,–
CN1CC2([N+](=O)[O-])CC=C(OCCO)C([N+](=O)[O-])(C1)C2 (stereo not drawn),inactive,–
Cc1cccc(N=Nc2c(C)c(C#N)c(O)[nH]c2=O)c1,"inconclusive: 21.3 µM [inhibitor, partial curve, poor fit]",–
Cc1cccc(NC(=S)NNC(=S)NCc2ccccc2)c1,"inconclusive: 21.3 µM [inhibitor, partial curve, poor fit]",–
Cc1ccc(OCCN(C)C(=O)c2cc(COc3ccc(F)cc3F)on2)cc1,inactive,–
CCN(CC)CCN1C(=O)c2ccccc2NC1c1ccc(F)cc1 (stereo not drawn),inactive,–
COc1ccccc1N1CCN(C(c2ccccc2)c2nnc(-c3ccccc3Cl)o2)CC1 (stereo not drawn),"inconclusive: 26.9 µM [inhibitor, partial curve, poor fit]",–
Cc1ccc(-c2cc(C(=O)NCC3CCCO3)no2)cc1 (stereo not drawn),–,inactive: -16.6% [at 2.3 µM]
Cc1ccc(NC(=O)Cn2c(=O)n(Cc3nc(-c4ccccc4)no3)c(=O)c3cc4c(cc32)OCO4)cc1C,inactive,–
CCSC1=N/C(=C\c2ccc(OC)cc2)C(=O)N1,"inconclusive: 26.9 µM [inhibitor, single point]",–

Structure (SMILES),Potency,"activity change, negative = inhibition"
Cc1cccc(NC(=O)Nc2ccc(C)cc2Br)c1,"inconclusive: 15.1 µM [inhibitor, partial curve]",–
Fc1ccccc1CSc1nnc(-c2cccs2)o1,active: 5.36 µM,–
Cc1cccc(OCCN2C(=O)c3ccccc3C2=O)c1,active: 23.9 µM,–
O=C(OCc1cccc([N+](=O)[O-])c1)c1ccc2ccccc2n1,active: 26.9 µM,–
Cc1ccc(-n2c(O)c(/C=N/NC(=O)C3COc4ccccc4O3)c3ccccc3c2=O)cc1 (stereo not drawn),inactive,–
O=C(COc1ccccc1)Nc1ccccc1F,"inconclusive: 23.9 µM [inhibitor, single point]",–
CCOC(=O)c1ccc(N2C(=O)c3[nH]nc(-c4ccccc4)c3C2c2cccs2)cc1 (stereo not drawn),inactive,–
O=C(CSc1nc2c(c(=O)[nH]1)CN(Cc1ccc(F)cc1)CC2)Nc1cccc(C(F)(F)F)c1,inactive,–
Fc1ccc(Cn2nnc(-c3ccc(Cl)cc3)n2)cc1,"inconclusive: 26.9 µM [inhibitor, single point]",–
CC1Cc2ccccc2N1S(=O)(=O)c1cccc(C(=O)NCCCO)c1 (stereo not drawn),inactive,–
CCOc1ccc(C(=O)Nc2c(C(N)=O)oc3ccccc23)cc1,active: 10.7 µM,–
Cc1c(C(=O)OCC(=O)N2C(C)CCCC2C)oc2ccccc12 (stereo not drawn),active: 16.9 µM,–
O=C(CN1C(=O)C2C3C=CC(C3)C2C1=O)Nc1nc2ccccc2[nH]1 (stereo not drawn),"inconclusive: 23.9 µM [inhibitor, partial curve, poor fit]",–
CC(=O)Nc1ccc2nc(NC(=O)C(Cl)(Cl)Cl)sc2c1,active: 15.1 µM,–
Cc1ccc(NC(=S)N(Cc2cccc(Br)c2)CC2CCC(C(=O)O)CC2)cc1 (stereo not drawn),"inconclusive: 21.3 µM [inhibitor, partial curve, poor fit]",–
O=C(N/N=C/C=C\c1cccc([N+](=O)[O-])c1)c1ccccn1,inactive,–
O=C(CN1C(=O)COc2ccc(S(=O)(=O)Nc3ccccc3)cc21)NCc1ccccc1Cl,"inconclusive: 37.9 µM [inhibitor, partial curve, poor fit]",–
CC(=O)N1c2ccc(S(=O)(=O)N(C)CC(=O)NC3CCCC3)cc2CC1C (stereo not drawn),inactive,–
c1ccc(CN=C2NN=C(c3ccccc3)CS2)cc1,active: 19 µM,–
COc1ccc(/C=C2\C(=N)N3N=C(CC(=O)N4CCOCC4)SC3=NC2=O)cc1,"inconclusive: 21.3 µM [inhibitor, single point]",–
O=C(COc1ccccc1)Nc1nc(-c2ccncc2)cs1,"inconclusive: 10.7 µM [inhibitor, partial curve]",–
COc1cccc(NC(=O)c2ccc(CN3CCc4ccccc4C3)cc2)c1,active: 19 µM,–
O=C(CN1C(=O)c2ccccc2C1=O)c1ccc(F)cc1,"inconclusive: 30.1 µM [inhibitor, single point]",–
Cc1oc(/N=C/c2ccc(F)cc2)c(C#N)c1C,"inconclusive: 6.75 µM [inhibitor, partial curve]",–
